According to the supplement of paper PMC3334620:
In all, about 33,000 sequences were measured (“E-score (-0.5 to 0.5)”: median about -0.035, highest 2% from about 0.35 on). This is one part of the list.

The sequences below were run against T1, Pdr3 (UniProt P33200) (assay: PBM E-score (8-mer binding enrichment) (E-score (-0.5 to 0.5)); higher = stronger / more preferred TF binding; most listed sequences are background and not binding sites). Details: protein concentration: 200 nM; construct: GST-full length.
T1 sequence: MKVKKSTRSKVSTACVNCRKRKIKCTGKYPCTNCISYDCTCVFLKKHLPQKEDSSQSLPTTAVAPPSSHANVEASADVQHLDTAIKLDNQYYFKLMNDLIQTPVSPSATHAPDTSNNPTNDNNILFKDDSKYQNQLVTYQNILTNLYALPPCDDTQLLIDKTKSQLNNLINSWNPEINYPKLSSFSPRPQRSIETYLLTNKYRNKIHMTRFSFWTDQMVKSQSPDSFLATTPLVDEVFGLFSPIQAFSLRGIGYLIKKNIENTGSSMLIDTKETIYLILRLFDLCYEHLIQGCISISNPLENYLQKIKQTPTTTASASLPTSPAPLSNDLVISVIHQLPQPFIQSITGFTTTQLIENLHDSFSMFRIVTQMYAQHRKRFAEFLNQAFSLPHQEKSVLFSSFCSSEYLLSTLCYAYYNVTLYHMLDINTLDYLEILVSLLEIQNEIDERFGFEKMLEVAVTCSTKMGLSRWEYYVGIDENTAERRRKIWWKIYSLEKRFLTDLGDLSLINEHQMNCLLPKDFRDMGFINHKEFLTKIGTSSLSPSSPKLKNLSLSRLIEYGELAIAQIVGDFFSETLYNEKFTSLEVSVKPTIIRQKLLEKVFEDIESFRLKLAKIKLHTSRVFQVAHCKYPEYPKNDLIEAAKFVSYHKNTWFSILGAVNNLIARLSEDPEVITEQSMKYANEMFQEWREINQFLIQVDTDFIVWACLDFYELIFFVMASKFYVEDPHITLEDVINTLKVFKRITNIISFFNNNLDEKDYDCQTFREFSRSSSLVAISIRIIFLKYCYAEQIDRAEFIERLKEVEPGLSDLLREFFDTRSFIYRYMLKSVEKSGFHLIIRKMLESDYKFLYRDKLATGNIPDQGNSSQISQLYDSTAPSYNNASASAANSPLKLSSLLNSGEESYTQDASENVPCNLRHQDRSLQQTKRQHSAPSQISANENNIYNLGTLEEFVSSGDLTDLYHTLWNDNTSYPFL
How it was run: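 Detection of bound protein used fluorescent anti-GST, with scans normalised by masliner. The proteins were GST-tagged yeast transcription factors applied at about 100-200 nM to universal all-10-mer Agilent arrays made double-stranded by primer extension. Each ungapped eight-base word, pooled with its reverse complement, was scored with an E-score from the Universal PBM Analysis Suite.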
For CCGACCCC, the “PBM E-score” value was -0.0229. For AACGAACG, the “PBM E-score” value was 0.0925. In the case of CTTGTCTA, the “PBM E-score” value is reported as -0.107. With AGGACAGG the “PBM E-score” value was -0.217. For CAAAAATG, the “PBM E-score” value was 0.119. AAAGGTTG was tested, and the “PBM E-score” value was -0.0419. For CCTGACGC, the “PBM E-score” value was -0.129. For AACTATGG, the “PBM E-score” value was -0.186. In the case of GCTAGGCC, the “PBM E-score” value is reported as -0.0738. For AGTATTAT, the “PBM E-score” value was -0.335. With AGAACTTC the “PBM E-score” value was -0.00865. With CTATTTGA the “PBM E-score” value was 0.0111. For GAAGATAC, the “PBM E-score” value was 0.0529. With TAATGTCA the “PBM E-score” value was -0.0566. In the case of CCCACCCA, the “PBM E-score” value is reported as 0.073. With AACTAGGA the “PBM E-score” value was -0.125. For CTTCCAAA, the “PBM E-score” value was -0.155. With CGGAGCTC the “PBM E-score” value was 0.321. In the case of AACAAATG, the “PBM E-score” value is reported as -0.0854. With CCTTTTAC the “PBM E-score” value was -0.0322. For ACTTAGAT, the “PBM E-score” value was 0.0153. With GGACATAC the “PBM E-score” value was 0.246. For ATGCAGAC, the “PBM E-score” value was 0.0172. With TCAGGCAA the “PBM E-score” value was -0.124. With CCCATGAA the “PBM E-score” value was 0.0372. With CAGCTAGA the “PBM E-score” value was -0.177. With AACGTTTG the “PBM E-score” value was -0.0262. With CATAGAAC the “PBM E-score” value was -0.0427. With AGATAACA the “PBM E-score” value was -0.115. With GTGCTCTA the “PBM E-score” value was -0.135. CCCGCGAA was tested, and the “PBM E-score” value was 0.206. With ATCGTAAG the “PBM E-score” value was -0.0413. For AGTAAAAC, the “PBM E-score” value was -0.205. With ACTGCCGC the “PBM E-score” value was 0.21. In the case of CGTGCATC, the “PBM E-score” value is reported as -0.0624. For GAAGATCC, the “PBM E-score” value was 0.0596. With GCAGGACA the “PBM E-score” value was -0.00064. For CCTCGCTA, the “PBM E-score” value was -0.245. With CTGTTACA the “PBM E-score” value was -0.0948. ATATAAGA was tested, and the “PBM E-score” value was 0.0664. In the case of ACCCGTTA, the “PBM E-score” value is reported as 0.13. For AAATAAGA, the “PBM E-score” value was -0.0404. CTCAAGGA was tested, and the “PBM E-score” value was -0.022. For AAGCGCTG, the “PBM E-score” value was 0.12. With TCAGCCGA the “PBM E-score” value was 0.153. ACCCATAG was tested, and the “PBM E-score” value was -0.237. With AAGACCTC the “PBM E-score” value was -0.134. AGTGATAA was tested, and the “PBM E-score” value was -0.12. AAGATTCG was tested, and the “PBM E-score” value was 0.108. In the case of GCTTAAGA, the “PBM E-score” value is reported as -0.038. For AAAGCAAG, the “PBM E-score” value was 0.122. AGCTAACG was tested, and the “PBM E-score” value was -0.207. With CAATGCTA the “PBM E-score” value was -0.161. With CGTTTGCA the “PBM E-score” value was 0.0843. For CCGCTCGC, the “PBM E-score” value was 0.277. In the case of CAAGGAAC, the “PBM E-score” value is reported as 0.161. With AGGCCAAA the “PBM E-score” value was 0.0479. CTGTCGAA was tested, and the “PBM E-score” value was -0.161. In the case of TAGGGGCA, the “PBM E-score” value is reported as -0.206. For CTTTAAAC, the “PBM E-score” value was -0.159. CGGATGAA was tested, and the “PBM E-score” value was 0.31. With GCTCTTCA the “PBM E-score” value was -0.14. For CATACTCA, the “PBM E-score” value was -0.0349. For AACCCGGC, the “PBM E-score” value was 0.289. AGTCGGGA was tested, and the “PBM E-score” value was 0.188. In the case of GACTGCGC, the “PBM E-score” value is reported as 0.015. For CCATAGCA, the “PBM E-score” value was -0.114. In the case of ATAAAACA, the “PBM E-score” value is reported as -0.0575. With ACCTCGTA the “PBM E-score” value was 0.0191. CGCCACAC was tested, and the “PBM E-score” value was 0.0531. In the case of CTCAAACC, the “PBM E-score” value is reported as -0.0558. For AATGGCGG, the “PBM E-score” value was 0.229. With ATGCTGCG the “PBM E-score” value was -0.159. With CCATCTTA the “PBM E-score” value was -0.108. With CACAGTAG the “PBM E-score” value was -0.204. With CGAGGGAG the “PBM E-score” value was 0.0672. ACTAGTTG was tested, and the “PBM E-score” value was -0.139. In the case of GTACAGAC, the “PBM E-score” value is reported as -0.254. With AATCGGTC the “PBM E-score” value was 0.227. CCCTCTGC was tested, and the “PBM E-score” value was -0.316. In the case of CCGATACA, the “PBM E-score” value is reported as 0.206. ATGTAGAG was tested, and the “PBM E-score” value was -0.0921. ATCCATCG was tested, and the “PBM E-score” value was -0.00715. In the case of CCCTCTAG, the “PBM E-score” value is reported as -0.273. In the case of CACAATGA, the “PBM E-score” value is reported as -0.0245. CAAAATTG was tested, and the “PBM E-score” value was -0.0531. For AAGTCTGG, the “PBM E-score” value was -0.229. In the case of ATCATATG, the “PBM E-score” value is reported as -0.0169. CAGCAGCA was tested, and the “PBM E-score” value was -0.0603. For AGTCTGCA, the “PBM E-score” value was -0.227. In the case of GATAACGA, the “PBM E-score” value is reported as -0.0144. In the case of GACTCGCA, the “PBM E-score” value is reported as -0.113. In the case of CGGCAGCA, the “PBM E-score” value is reported as 0.109. TCGTGGCA was tested, and the “PBM E-score” value was -0.129. With CGACTTCC the “PBM E-score” value was 0.135. In the case of GCGCTTAA, the “PBM E-score” value is reported as -0.0159. GCGTCTAA was tested, and the “PBM E-score” value was -0.25. For AAATACTC, the “PBM E-score” value was 0.0144. With AGGTCGCG the “PBM E-score” value was 0.098. In the case of ACCTACCA, the “PBM E-score” value is reported as -0.181. With CGAGAGGC the “PBM E-score” value was -0.119. For CGCTAGAA, the “PBM E-score” value was -0.182. In the case of ATGGCGGG, the “PBM E-score” value is reported as 0.298. With ATGGGCGA the “PBM E-score” value was 0.0465. ACTATGAA was tested, and the “PBM E-score” value was -0.136. In the case of CGCAGCTC, the “PBM E-score” value is reported as -0.0701. For GTCCGCAA, the “PBM E-score” value was 0.259. With ATGGCAGG the “PBM E-score” value was 0.191. For GGAGTCAC, the “PBM E-score” value was -0.0786. GCCTTTCA was tested, and the “PBM E-score” value was -0.0759.
